Results taken from PubChem BioAssay AID588855 (National Center for Advancing Translational Sciences (NCATS), 2011).
About 5,000 (1.2%) of roughly 410,000 compounds were called active. Inconclusive results, whose numbers are uncertain, are shown with a selection of clear calls. Calls follow the shape of the dose curve; as a rule, active = well fitted inhibition curve with a large enough effect; inconclusive = small, poorly fitted or top-dose-only effect; inactive = no such curve, though single readings can be large or run the other way. A potency beside an inconclusive call is a rough fit, not a confirmed value.

Assay: qHTS for Inhibitors of TGF-b; also: nearly all actives have a fitted effect of over 65% in size
Details: HepG2 CAGA-GFP TGF-b/SMAD3 reporter, GFP fluorescence, 18 h, TGF-beta stimulated, 500 pg/mL final; series mostly up to 46.1 µM; activity, negative = inhibition: at the top concentration
In short: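 Using HEPG2 CAGA-GFP reporter cells at 1000 cells/well, we pinned test compounds, stimulated with recombinant TGF-beta (500 pg/mL final) and measured total well GFP after 18 h.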
% is scaled to controls: 0 for no effect and ±100 for the full control effect; potency is read from the fitted curve at half-maximal effect; tags tell the direction and shape of the fitted curve.

Structure (SMILES)	Potency	activity, negative = inhibition
O=C(Nc1cccc(S(=O)(=O)Nc2ccc(Cl)cc2)c1)c1ccc(Cl)nc1	active: 14.1 µM	–
Cc1nn(CC(C)C)c(Cl)c1C(=O)N(c1ccc(Cl)cc1F)S(C)(=O)=O	inconclusive: 35.5 µM [inhibitor, single point]	–
NC1=CC(=O)C(=O)c2ccccc21	inconclusive: 35.5 µM [inhibitor, single point]	–
COc1ccc(CN2C(=O)C(Cc3ccccc3)Nc3ncnc(N4CCN(c5ccccc5)CC4)c32)cc1 (stereo unspecified)	inconclusive: 2.82 µM [inhibitor, single point]	–
Cc1ccc(-c2ccc(CN3C(C(C)C)C(=O)N(Cc4cn(CC5CCCCC5)nn4)CCS3(=O)=O)cc2)cc1 (stereo unspecified)	inconclusive: 35.5 µM [inhibitor, single point]	–
CCCCCCNC(=O)O[C@H]1Cn2c(=O)n(CCCCCC)c(=O)n2[C@@H]2CN(S(=O)(=O)c3ccc(C)cc3)C[C@]12O	inconclusive: 35.5 µM [inhibitor, single point]	–
CCOc1ccc(-c2n[nH]c(=S)n2Cc2ccccc2)cc1	inconclusive: 35.5 µM [inhibitor, single point]	–
Cn1c(C(=O)N[C@@H](C(=O)O)c2ccccc2)cc2cc(F)ccc21	–	inactive: 25.6%
Cc1ccc(SC[C@H](Cc2ccccc2)N2CC[C@@H](C)CCC2=O)cc1	inconclusive: 31.6 µM [inhibitor, single point]	–
COc1ccc(Cl)cc1NC(=O)NCC1CCN(Cc2ccccc2F)CC1	inconclusive: 11.2 µM [inhibitor, partial curve, poor fit]	–
CCCN(CCC)C(=O)c1ccc2nc(-c3ccc(OC)c(OC)c3)c(-c3ccc(OC)c(OC)c3)nc2c1	inconclusive: 35.5 µM [inhibitor, single point]	–
COc1cc(C#Cc2c(-c3cncn3C)n(C)c3ccc(-c4cnc(N5CCOCC5)nc4)cc23)cc(OC)c1	–	inactive: -18.9%
CC(C)(Oc1ccc(Cl)cc1)C(=O)Nc1nc2ccc(S(C)(=O)=O)cc2s1	inconclusive: 20 µM [inhibitor, single point]	–
Cc1ccc(Cl)cc1-c1cc(C(=O)NCc2ccc(C(F)(F)F)cc2)[nH]n1	inconclusive: 25.1 µM [inhibitor, single point]	–
O=C(Nc1ncc(S(=O)(=O)c2ccc([N+](=O)[O-])cc2)s1)c1ccccc1F	inconclusive: 35.5 µM [inhibitor, single point]	–
CN(C)c1ccc(C(CNC(=O)c2c(F)cccc2Cl)N2CCOCC2)cc1 (stereo unspecified)	–	inactive: -20.5%
CC1=N/C(=C\c2ccc(OC(C)C)cc2)C(=O)N1c1ccc(C(=O)O)cc1	–	inactive: -1.18%
Cc1ccc(NC(=O)CN2C(=O)C3(SCC(=O)N3c3ccc(F)c(F)c3)c3ccccc32)c(C)c1 (stereo unspecified)	–	inactive: 0.764%
O=C(NCc1ccco1)C1OCCc2ccccc21 (stereo unspecified)	inconclusive: 3.16 µM [inhibitor, partial curve, poor fit]	–
Cc1cc(C)n2nc(C(=O)OCC(=O)NCc3ccc(Cl)cc3)nc2n1	–	inactive: 16%
CCC(=O)C1CCCN(C(=O)c2ccc(OC3CCN(C(=O)CCOC)CC3)cc2)C1 (stereo unspecified)	inconclusive: 5.62 µM [inhibitor, single point]	–

Structure (SMILES)	Potency	activity, negative = inhibition
Cc1cc(C)n(-c2nc(NCCN(C)C)c3c4c(sc3n2)COC(C)(C)C4)n1	inconclusive: 35.5 µM [inhibitor, single point]	–
CCOCCCNC(=O)C(c1ccc(Cl)cc1)N(Cc1cccs1)C(=O)c1ccc(NC(C)=O)cc1 (stereo unspecified)	–	inactive: -11.2%
CCC(C)(C)C1CCc2[nH]nc(C(=O)N/N=C(\C)c3ccco3)c2C1 (stereo unspecified)	active: 14.1 µM	–
COC(=O)CON1C(=O)c2ccccc2C1=O	inconclusive: 12.6 µM [inhibitor, partial curve]	–
CCN(CC)CCC(c1cc(OC)c(OC)c(OC)c1)c1c(OC)cc(OC)c2ccc(=O)oc12 (stereo unspecified)	inactive	–
CCCCCOC(=O)Cn1c(=O)oc2ccccc21	–	inactive: 11.1%
CC1=C(C)CS(=O)N(S(=O)(=O)c2ccc(Cl)cc2)C1 (stereo unspecified)	inconclusive: 14.1 µM [inhibitor, partial curve, poor fit]	–
Cc1ccc(-c2nnc(Nc3ccc(S(N)(=O)=O)cc3)c3ccccc23)cc1S(=O)(=O)N1CCCCC1	inconclusive: 5.62 µM [inhibitor, single point]	–
N#Cc1cc(-c2ccccc2)oc1NC(=O)c1ccccc1	inconclusive: 4.47 µM [inhibitor, full curve, poor fit]	–
CCOc1cccc(C2C=C(c3ccc4c(c3)OCO4)NC(c3ccc(Cl)cc3)N2)c1O (stereo unspecified)	inconclusive: 14.1 µM [inhibitor, partial curve, poor fit]	–
O=C(CC1SC(=Nc2ccccc2)N(Cc2ccccn2)C1=O)Nc1cccc(Cl)c1 (stereo unspecified)	inconclusive: 35.5 µM [inhibitor, single point]	–
O=C(C1CCCN(c2ncnc3c2nc2n3CCCCC2)C1)N1CCN(c2ccc(Cl)cc2)CC1 (stereo unspecified)	inconclusive: 35.5 µM [inhibitor, single point]	–
Nc1cc(S(=O)(=O)N2CCCCC2)ccc1Oc1ccccc1	inconclusive: 8.91 µM [inhibitor, partial curve]	–
CCC(C)[C@H](N)C(=O)N[C@H]1CCC2C3CC=C4C[C@@H](O)CC[C@]4(C)C3CC[C@@]21C (stereo partly specified)	inconclusive: 15.8 µM [inhibitor, single point]	–
CC(=O)/C(N=Nc1ccc(C(=O)O)cc1[N+](=O)[O-])=C(\C)O	–	inactive: -6.25%
COc1cc(C(=O)N/N=C/C2CC=CCC2)cc(OC)c1OC (stereo unspecified)	inconclusive: 3.55 µM [inhibitor, full curve, poor fit]	–
NS(=O)(=O)c1ccc(NC(=O)CSC2CCCCC2)cc1	–	inactive: -1.4%
CN1C[C@@H]2[C@@H]3C(=O)N(Cc4ccccc4)C(=O)[C@@H]3[C@](C)(C1=O)N2C(=O)c1ccccc1	inconclusive: 6.31 µM [inhibitor, single point]	–
CCc1ccc(/C=C2\SC(=S)N(CCCC(=O)N3CCN(C)CC3)C2=O)cc1	inconclusive: 22.4 µM [inhibitor, single point]	–
CCOc1ccc(Nc2c(S(=O)(=O)c3ccccc3)cnc3ccccc23)cc1	inconclusive: 17.8 µM [inhibitor, single point]	–
